PubChem BioAssay (NCI)
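Five concentrations, 48 hours, 96-well plates. GI50: concentration for 50% inhibition of growth.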 The source holds more than one record for some entries. They are shown here; other results are not. An entry can have further records. A record mostly stands for its own series of concentrations, which the source does not state; some values may only mark the edge of a range.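 TGI is the concentration that stops growth completely.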

Tests used:
Test in all cases: NCI anticancer screen, dose series, 48 h
[1] = system: A498 renal
[2] = system: A549 NSCLC
[3] = system: HOP-92 NSCLC
[4] = system: NCI-H226 lung
[5] = system: OVCAR-5 ovarian
[6] = system: SK-MEL-28 melanoma
[7] = system: SNB-75 CNS
[8] = system: TK-10 renal
[9] = system: UO-31 renal
[10] = system: IGROV1 ovarian
[11] = system: NCI-H23 lung

CC[C@H](C)[C@H](NC(=O)[C@H]1CCCCN1C)C(=O)N(C)[C@H](C[C@@H](OC(C)=O)c1cccc(C(=O)N[C@@H](Cc2ccccc2)C[C@H](C)C(=O)O)n1)C(C)C
TGI [1]: 858 nM and < 2.5 nM
GI50 [2]: 34.9 nM and 2.5 nM
GI50 [3]: 0.428 nM and 2.97 µM
TGI [3]: 93.7 nM and > 25 µM
GI50 [4]: 127 nM and 7.78 nM
GI50 [5]: 47.9 nM and 2.5 nM
GI50 [6]: 56 nM and > 25 µM
GI50 [7]: 1.74 nM and 14.4 µM
GI50 [8]: 265 nM and > 25 µM
GI50 [9]: 47.3 nM and 1.21 µM

O=C1NC2(CCCCC2)C(=O)N1CCN(CCCl)CCCl
TGI [10]: 25 µM and > 250 µM
TGI [11]: 25 µM and > 250 µM
